According to the RNAGym collection of RNA variant scans (doi:10.7554/elife.90254):
Read counts are not given, so values of variants with three or more changes are uncertain.

B1: LINE1-mini (parent)
chain: GGCAGAGCUCAACACAGCGUGGCAAAGUGGCUGUGGCUAGACUGCC

Variants of: B1
Experiment: self-cleavage, relative activity (ratio to wild type); higher = more cleavage; in vitro, sequencing; the parent is a self-cleaving ribozyme

Variant	self-cleavage
C13G A25U C31U A41G	0.01
G7A U20C C37A	0.07
G5C C15U A24G C37A A41C	0.06
C15A G19C G21A G44U	0.05
C15G A16C G36C U43A	0.02
A6U C13U C18G G36A	0.08
C3G C10G A14C C45U	0.02
C13U G17A U20C C46G	0.01
G7C A16G G35U	0.01
A4U C13G G19A G22U C23U A25U G30A A39U	0.03
A14U G22U G30C	0.12
G7C G22U G30C	0.05
A25U G30A C31U C46G	0.01
C23G G27A U38A	0.21
A14G C15A C45G	0.02
G2U U9A A14C U32A C42A G44C	0.03
U9A C10G G27U G36A	0.03
G1U A16G U34G	0.04
G2U C3A C8U A16U A24U G44C	0.43
G1C A4U A11C C37G U38G	0.01
G1A U9A A24G U34C G35U A41U	0.24
C23G U32A C37A	0.12
G5A C18U G22A	0.2
G5U C8U C15A C23G A24G G27A G35C	0.25

Variant	self-cleavage
A12U C18G U20C U28A A41G C46U	0.04
A25U A26G U34C	0.08
G2C G5C A12U U20A A26G C45U	0.01
A6U C8G A12G G21U C42A	0.23
A24C G29C C46G	0.11
G17A G35A A41G	0.03
A11G C15U U20C G22A G30A	0.04
G5U G17C G29U C31G	0.01
A16U G27U U34A	0.03
G2A A4C C8U U38A C42G	0.11
G2U C3U A14C C46A	0.05
A26U U32G U34G	0.02
G17A C18G G21U G36C U38C	0
C15A G21A A41G	0.06
C10U U34G G35U	0.07
A14G G21A G22U U32A	0.02
G1U A14G C37U	0.24
G7A U9A G21A	0.3
A26C U28A G33U	0.07
U20A C37U U38A A39U C46U	0.02
G1A G19U G29U C37G A39C C45U	0.02
G5A G35U G36U	0.27
C13U A16G G29U	0.12
A4G C13G G19C A25C U34A	0.17

Variant	self-cleavage
G19A A24U C42U	0.26
G2A C10U C13A G22U G36U	0.12
A12G G17C A26C G27C	0.09
A6U A12C U43C	0.07
G22A C31U C42A C46U	0.04
C10G A11G A25C	0.02
A4G G27C C45A	0.1
G7U A12U G19A U38G	0
G7A A24C U38G	0.01
C10U C18A C45A	0.13
A4G C18A G30U U34G C37A U38A G44C	0.01
A26U U28C G30A	0.37
A6G C10G G19C U28G G40A	0
C23G A25G G44U	0.11
G5A A12C A26U	0.04
A11U G19U C37A G44A	0
G7A U9C A11U A12C	0.01
C3A U9G G27U	0.16
U20A G21A G27U	0.33
G5C C8G C42U	0.02
A16U G17C C18G	0.12
C3A G5A G7U A25U U28A U32C U34A A39U	0.11
G2C G22A G40U C42U G44A	0.13
G1U G33U G44U	0.05

Variant	self-cleavage
U9G C31U C42U C45U	0
C31A G40C C46U	0.02
G1C G5U C10A U34G	0.01
G5C G17C A41G	0.02
G5A C13U C46G	0.02
G1C A12G C13U A16U G19C U34A C45G	0.01
C10A G19A A25C	0.02
C13G G19U C23G U28C C31A A39C	0
G2A A11U A14C G36U	0.06
C10A G27C C37G C45A	0
A14G C15A U20G G22C A24C C46A	0.02
A4C G21U G22A	0.19
A6U A25G G27U C37U U38G	0.01
G21C C42A C46U	0.1
C3U G19C C23G U43A	0.02
U9G C10A G22U A25C G29A	0.02
C3A C10G U20A G36U A39U	0.02
C18G G27A G36U G40A	0.06
A4C C18U G33U C37G	0.04
C23G U28C G33A	0.08
G7A U9G A14C C15G C45U	0.01
C8U C15A U28A C45G	0.32
G27U U28A G30U	0.28
G1C A6U U9C G27U	0.02

Variant	self-cleavage
C31U G33A G36C	0.09
G2A A12G C15A G40A	0.02
C13U C23A G27C	0.22
G21U C23A A26C C31G C37U C46A	0.01
C8U C18A A26U	0.02
A12U C31G C46U	0.03
G19C C23G G33C G40A	0.02
A12G U20G G22A U28G G30U G36U	0.01
A4C G19C A25C G29C	0.02
G5C C15A G21U G22C	0.02
G5A G30A G36A A39C	0.53
G1C C10A C31U U32G	0.02
C8A C13A C23U	0.33
A6C G21A G33A G35U	0.04
G5U U32C C46A	0.05
C15A A16U G17C C42G U43C	0.01
G19A G36U C45G	0.18
C13A A16C G29A	0.08
C8A U9A A25C	0.14
G1U C31A C42U U43C	0.02
G22U G36C C37U	0.01
A4C C18U G21A	0.09
C10U A12C C23A G40C	0.01
U20A U32A G36C C42U	0.08

Variant	self-cleavage
C10G C18A G44U	0.01
G5C A25C G30C C31U	0.08
G30A G36U A39G	0.03
C15A U20C G22A G35U U43G C46G	0.01
U9G A12C C15A G17U U32C	0.04
G5C C23G A26U U34G	0.02
G2U A12C C42U	0
A6C G7U C15U G36A	0.08
G2U G7A A25G	0.02
U28C U34G A41U C42G	0.04
G17A C18G G33U C37U	0.05
C37U G44U C45A	0.28
A16G G27C U28C	1.04
G1U C18A G35U	0.01
G2C A6G U34A G36U	0.06
C10G G22C C23U G40A	0.01
U9C G19U C31A	0.02
A4U A16C G19A C23A G36C	0.09
G1U U28C G33U	0.02
U9G G21U C45U	0.05
C3G G7C C15A	0.02
G2U C8A A12G A25U	0.23
C3A C8A G17U	0.61
A6G G22C C31U	0.01

Variant	self-cleavage
A12C A16G A24U G27C U28A A39G A41G	0
G1C C13U G30U A39U C46G	0.04
C15U G17C A24C C46A	0.03
G7A G17C G21C C31G	0.01
C18G A26G C37A	0.09
G5A G7C A12C C13A U38A	0.03
G5C C10A G36C	0.05
G5U C13U C15U	0.17
C15A G33C C45A	0.04
G1C C3G G5A C15A G33U G40U C42U	0.02
G5U U20C G33A	0.02
G7C G29U C37A A39U G44U	0.09
A6G A12U C31G	0.01
G7A C13U G21U	0.08
G17U G19A A25U G30A U38G	0
A4G C10A A41U	0.01
A24G G35A A39C	0.03
C3A C8U A25U	1.08
G19A G30C C31A U32C	1.85
A4C G5U A12U A16U C46U	0.03
C31U G33A A41C	0.03
C10A U20C A24U	0.01
G5A C15U C23G	0.13
